± gives the standard deviation. This is a selection; strong and weak results do not stand in their true shares.
What follows are sequences tested on MIWI (PIWIL1) piRISC loaded with piRNA #1 (30 nt) (assay: pre-steady-state target cleavage rate (min^-1); MIWI and MILI are mouse PIWI proteins and EfPiwi is from a freshwater sponge; tags in brackets are library labels; higher = faster piRNA-guided slicing of the target). Details: guide: piRNA #1 5'p-UGAGGUAGUAGGUUGUAUAGUAUCCAGAGG; auxiliary factor: 500 nM mouse GTSF1.
Summary of the method: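 Active affinity-purified piRISC carrying one synthetic guide (1 nM) was mixed with a transcribed, DNA-blocked target RNA library […] in HEPES–potassium acetate buffer at 33 °C for 0–8 or 0–960 min, with or without 500 nM GTSF1 partner protein. Uncleaved targets were then sequenced and normalised to depth and to weakly complementary targets. Three trials were pooled, and k3 was capped at 0.0001 min^-1. A burst-and-steady-state fit was applied to obtain the pre-steady-state cleavage rate.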
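Further: 1 nM active piRISC with 0.1 nM target library at 33 °C single turnover.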

| Sequence | pre-steady-state target cleavage rate |
| --- | --- |
| GGAGACCUUACAAUACAACCUACUACGUCA | 0.24 ± 0.036 |
| GGAGACGCAUACUAUACAACCUACUACCUCA | 1.91 ± 0.14 |
| GGACUGGAUACUAUAGAACCUACUACCACA | 0.0248 ± 0.0067 |
| GGACUCGGAUACUAUACAACCUACUACCUCA | 1.97 ± 0.13 |
| GGAGUGGAUACUAUACAACGUUCUACCUCA | 0.118 ± 0.012 |
| GGAGUGGAUACUAUACAACCUACUACAUCA | 0.318 ± 0.034 |
| CCUCUCGAUACUUUACAACCUACUACCUCA | 2.13 ± 0.14 |
| GCACUGGAUACUAUACAACCUACUUCCUCA | 0.184 ± 0.045 |
| GCUCUGGAUACUAUAGUACCUACUACCUCA | 1.06 ± 0.082 |
| GGAGACCUAUCUAUACAACCUAGUUCCUCA | 0.0159 ± 0.0051 |
| GGAGACGUUACUAUUCAACCUACUACCUCA | 1.37 ± 0.1 |
| GGAGACCUAUCUAAACAACCUACUUCCUCA | 0.00343 ± 0.0029 |
| GGACUGGAUACUAUACAAGCUACUAGCUCA | 0.0867 ± 0.019 |
| GCUCAGGUUACUAUACAACCUACUACCUCA | 2.01 ± 0.12 |
| GGAGACCUUUCUAUACAAGCUACUACCUCA | 0.357 ± 0.028 |
| GCUCUGGAUCUAUACAACCUACUACCUCA | 0.996 ± 0.074 |
